Measurements published in article PMC9911399, “Two distinct binding modes provide the RNA-binding protein RbFox with extraordinary sequence specificity”.
Positions count from the first letter of the chain named. The list shows a part of the results.

T1: RBFOX1 RRM (Homo sapiens, UniProt Q9NWB1 109-208)
T1 sequence: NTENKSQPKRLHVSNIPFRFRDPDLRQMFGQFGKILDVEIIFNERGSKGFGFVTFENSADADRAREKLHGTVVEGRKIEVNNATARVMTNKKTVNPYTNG

B1: CAGAUGC (DNA:RNA)
RNA: GGGAGACCGGAAUUCAGAUUGUCCCAGAUGCUUAAAUCCCGUCGUAGCCACCA
DNA 1: CAATCTGAATTCCGGTCTCCC
DNA 2: TGGTGGCTACGACGGGATT
B2: GGUUCGG (DNA:RNA)
RNA: B1 RNA with C25G, A26G, G27U, A28U, U29C, C31G
DNA 1: CAATCTGAATTCCGGTCTCCC
DNA 2: TGGTGGCTACGACGGGATT
B3: UUCCCGG (DNA:RNA)
RNA: B1 RNA with C25U, A26U, G27C, A28C, U29C, C31G
DNA 1: CAATCTGAATTCCGGTCTCCC
DNA 2: TGGTGGCTACGACGGGATT
B4: AAACACA (DNA:RNA)
RNA: B1 RNA with C25A, G27A, A28C, U29A, G30C, C31A
DNA 1: CAATCTGAATTCCGGTCTCCC
DNA 2: TGGTGGCTACGACGGGATT
B5: CUCUCCG (DNA:RNA)
RNA: B1 RNA with A26U, G27C, A28U, U29C, G30C, C31G
DNA 1: CAATCTGAATTCCGGTCTCCC
DNA 2: TGGTGGCTACGACGGGATT
B6: CCCUCUG (DNA:RNA)
RNA: B1 RNA with A26C, G27C, A28U, U29C, G30U, C31G
DNA 1: CAATCTGAATTCCGGTCTCCC
DNA 2: TGGTGGCTACGACGGGATT
B7: CGCACAA (DNA:RNA)
RNA: B1 RNA with A26G, G27C, U29C, G30A, C31A
DNA 1: CAATCTGAATTCCGGTCTCCC
DNA 2: TGGTGGCTACGACGGGATT
B8: ACAGUUC (DNA:RNA)
RNA: B1 RNA with C25A, A26C, G27A, A28G, G30U
DNA 1: CAATCTGAATTCCGGTCTCCC
DNA 2: TGGTGGCTACGACGGGATT
B9: CGAUACC (DNA:RNA)
RNA: B1 RNA with A26G, G27A, A28U, U29A, G30C
DNA 1: CAATCTGAATTCCGGTCTCCC
DNA 2: TGGTGGCTACGACGGGATT
B10: AUAUAUG (DNA:RNA)
RNA: GGGAGACCGGAAUUCAGAUUGUCCAUAUAUGUUAAAUCCCGUCGUAGCCACCA
DNA 1: CAATCTGAATTCCGGTCTCCC
DNA 2: TGGTGGCTACGACGGGATT
B11: CCUGGGA (DNA:RNA)
RNA: B1 RNA with A26C, G27U, A28G, U29G, C31A
DNA 1: CAATCTGAATTCCGGTCTCCC
DNA 2: TGGTGGCTACGACGGGATT
B12: GUUGUGA (DNA:RNA)
RNA: B1 RNA with C25G, A26U, G27U, A28G, C31A
DNA 1: CAATCTGAATTCCGGTCTCCC
DNA 2: TGGTGGCTACGACGGGATT
B13: ACCUCUG (DNA:RNA)
RNA: B10 RNA with U26C, A27C, A29C
DNA 1: CAATCTGAATTCCGGTCTCCC
DNA 2: TGGTGGCTACGACGGGATT
B14: GAAACUC (DNA:RNA)
RNA: B1 RNA with C25G, G27A, U29C, G30U
DNA 1: CAATCTGAATTCCGGTCTCCC
DNA 2: TGGTGGCTACGACGGGATT
B15: AACUGGG (DNA:RNA)
RNA: B10 RNA with U26A, A27C, A29G, U30G
DNA 1: CAATCTGAATTCCGGTCTCCC
DNA 2: TGGTGGCTACGACGGGATT
B16: GGGCAUU (DNA:RNA)
RNA: B10 RNA with A25G, U26G, A27G, U28C, G31U
DNA 1: CAATCTGAATTCCGGTCTCCC
DNA 2: TGGTGGCTACGACGGGATT
B17: GACCACG (DNA:RNA)
RNA: B10 RNA with A25G, U26A, A27C, U28C, U30C
DNA 1: CAATCTGAATTCCGGTCTCCC
DNA 2: TGGTGGCTACGACGGGATT
B18: GCCCUCC (DNA:RNA)
RNA: B1 RNA with C25G, A26C, G27C, A28C, G30C
DNA 1: CAATCTGAATTCCGGTCTCCC
DNA 2: TGGTGGCTACGACGGGATT
B19: CGAUCCU (DNA:RNA)
RNA: B10 RNA with A25C, U26G, A29C, U30C, G31U
DNA 1: CAATCTGAATTCCGGTCTCCC
DNA 2: TGGTGGCTACGACGGGATT
B20: GCCCAAG (DNA:RNA)
RNA: B10 RNA with A25G, U26C, A27C, U28C, U30A
DNA 1: CAATCTGAATTCCGGTCTCCC
DNA 2: TGGTGGCTACGACGGGATT
B21: ACGGACU (DNA:RNA)
RNA: B10 RNA with U26C, A27G, U28G, U30C, G31U
DNA 1: CAATCTGAATTCCGGTCTCCC
DNA 2: TGGTGGCTACGACGGGATT
B22: UUUUAGU (DNA:RNA)
RNA: B10 RNA with A25U, A27U, U30G, G31U
DNA 1: CAATCTGAATTCCGGTCTCCC
DNA 2: TGGTGGCTACGACGGGATT
B23: CGCAAGA (DNA:RNA)
RNA: B1 RNA with A26G, G27C, U29A, C31A
DNA 1: CAATCTGAATTCCGGTCTCCC
DNA 2: TGGTGGCTACGACGGGATT
B24: CUUCGGC (DNA:RNA)
RNA: B1 RNA with A26U, G27U, A28C, U29G
DNA 1: CAATCTGAATTCCGGTCTCCC
DNA 2: TGGTGGCTACGACGGGATT
B25: GUAGAGC (DNA:RNA)
RNA: B10 RNA with A25G, U28G, U30G, G31C
DNA 1: CAATCTGAATTCCGGTCTCCC
DNA 2: TGGTGGCTACGACGGGATT
B26: UCAGAUU (DNA:RNA)
RNA: B10 RNA with A25U, U26C, U28G, G31U
DNA 1: CAATCTGAATTCCGGTCTCCC
DNA 2: TGGTGGCTACGACGGGATT
B27: UUCACAG (DNA:RNA)
RNA: B10 RNA with A25U, A27C, U28A, A29C, U30A
DNA 1: CAATCTGAATTCCGGTCTCCC
DNA 2: TGGTGGCTACGACGGGATT
B28: CUUUAUU (DNA:RNA)
RNA: B10 RNA with A25C, A27U, G31U
DNA 1: CAATCTGAATTCCGGTCTCCC
DNA 2: TGGTGGCTACGACGGGATT
B29: CAUUGCU (DNA:RNA)
RNA: B1 RNA with G27U, A28U, U29G, G30C, C31U
DNA 1: CAATCTGAATTCCGGTCTCCC
DNA 2: TGGTGGCTACGACGGGATT
B30: UUUUUGA (DNA:RNA)
RNA: B10 RNA with A25U, A27U, A29U, U30G, G31A
DNA 1: CAATCTGAATTCCGGTCTCCC
DNA 2: TGGTGGCTACGACGGGATT
B31: CGUAGAA (DNA:RNA)
RNA: B1 RNA with A26G, G27U, U29G, G30A, C31A
DNA 1: CAATCTGAATTCCGGTCTCCC
DNA 2: TGGTGGCTACGACGGGATT

Each binder was assayed against T1, RBFOX1 RRM (assay: EMSA; HiTS-Eq, 1 nM pool, 10 min; buffer printed only for the single-RNA assays: 10 mM Tris pH 7.5, 150 mM NaCl, 3.4 mM EDTA, 0.001% NP-40, 30 C). Settings: tags: His6 N-terminal (pET28a); label: 5' 32P.
How it was run: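 A pool of RNA with 7 randomized nucleotides, 5′-radiolabelled and with DNA-annealed flanks, was equilibrated at 1 nM for 10 min in 50 µL with purified RbFox RRM, wild type or mutant, across increasing protein concentrations. Free RNA was separated by 8% native PAGE, excised, reverse-transcribed, barcoded by PCR and sequenced. Relative association constants were obtained from read-count changes of each RNA species versus the control reaction and normalised to the cognate motif.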

Row | Binder | binding signal
1 | B1 | 0.0101 KA relative to UGCAUGU
2 | B2 | 0.0185 KA relative to UGCAUGU
3 | B3 | 0.0138 KA relative to UGCAUGU
4 | B4 | 0.000568 KA relative to UGCAUGU
5 | B5 | 0.0057 KA relative to UGCAUGU
6 | B6 | 0.0112 KA relative to UGCAUGU
7 | B7 | 0.00368 KA relative to UGCAUGU
8 | B8 | 0.0064 KA relative to UGCAUGU
9 | B9 | 0.00853 KA relative to UGCAUGU
10 | B10 | 0.00647 KA relative to UGCAUGU
11 | B11 | 0.0067 KA relative to UGCAUGU
12 | B12 | 0.0176 KA relative to UGCAUGU
13 | B13 | 0.0106 KA relative to UGCAUGU
14 | B14 | 0.00499 KA relative to UGCAUGU
15 | B15 | 0.00531 KA relative to UGCAUGU
16 | B16 | 0.0157 KA relative to UGCAUGU

Row | Binder | binding signal
17 | B17 | 0.00814 KA relative to UGCAUGU
18 | B18 | 0.00762 KA relative to UGCAUGU
19 | B19 | 0.00738 KA relative to UGCAUGU
20 | B20 | 0.00844 KA relative to UGCAUGU
21 | B21 | 0.00462 KA relative to UGCAUGU
22 | B22 | 0.0131 KA relative to UGCAUGU
23 | B23 | 0.0122 KA relative to UGCAUGU
24 | B24 | 0.0141 KA relative to UGCAUGU
25 | B25 | 0.0156 KA relative to UGCAUGU
26 | B26 | 0.00732 KA relative to UGCAUGU
27 | B27 | 0.00618 KA relative to UGCAUGU
28 | B28 | 0.00604 KA relative to UGCAUGU
29 | B29 | 0.0103 KA relative to UGCAUGU
30 | B30 | 0.0218 KA relative to UGCAUGU
31 | B31 | 0.00813 KA relative to UGCAUGU
